Test results reported in the CheMixHub viscosity set.
Further values from the same series stand in other lists.

Assay: xn = mol fraction of the nth substance listed

Cc1cccc(C)n1 + O
viscosity [mPa·s], 101.33 kPa
Details	300.12 K	303.12 K	306.99 K
x1 = 0.0182	–	–	1.03
x1 = 0.0406	1.778	1.657	1.546
x1 = 0.04497	1.79	1.675	1.572
x1 = 0.04989	2.015	1.876	1.841
x1 = 0.05536	2.15	2.002	2.072
x1 = 0.06006	2.261	2.103	2.284
x1 = 0.06724	2.42	2.245	2.413
x1 = 0.07288	2.553	2.362	2.467
x1 = 0.07938	2.996	2.737	2.516
x1 = 0.08016	2.697	2.491	2.458
x1 = 0.08937	2.865	2.651	2.495
x1 = 0.1447	3.699	3.318	2.942
x1 = 0.2014	4.206	3.739	3.245
x1 = 0.2793	4.344	3.853	3.345
x1 = 0.3794	3.885	3.503	3.091
x1 = 0.5786	2.31	2.112	1.93

O=S1(=O)CCCC1 + O
viscosity [mPa·s], 101 kPa
Details	303.15 K	308.15 K	313.15 K	318.15 K	323.15 K
x1 = 0.02074	–	–	0.756	–	0.631
x1 = 0.04649	–	–	0.886	–	0.735
x1 = 0.04934	1.125	1.013	0.9177	0.8357	0.7662
x1 = 0.07703	1.302	–	1.037	–	0.865
x1 = 0.1001	1.466	1.315	1.185	1.075	0.9827
x1 = 0.1147	1.55	–	1.241	–	1.032
x1 = 0.1504	1.813	1.625	1.458	1.318	1.201
x1 = 0.1615	1.9	–	1.528	–	1.261
x1 = 0.2013	2.17	1.93	1.734	1.565	1.422
x1 = 0.2247	2.33	–	1.852	–	1.5
x1 = 0.2496	2.503	2.23	1.997	1.799	1.629
x1 = 0.2978	2.839	2.522	2.257	2.031	1.84
x1 = 0.3102	2.984	–	2.393	–	1.931
x1 = 0.352	3.176	2.824	2.527	2.274	2.053
x1 = 0.4013	3.504	3.105	2.769	2.491	2.252
x1 = 0.4328	3.778	–	2.956	–	2.379
x1 = 0.4524	3.828	3.397	3.038	2.726	2.462
x1 = 0.5025	4.146	3.687	3.293	2.955	2.662
x1 = 0.5496	4.48	3.976	3.546	3.193	2.88
x1 = 0.602	4.842	4.297	3.833	3.448	3.108
x1 = 0.6323	5.085	–	3.996	–	3.256
x1 = 0.6508	5.205	4.625	4.115	3.703	3.337
x1 = 0.7007	5.62	4.98	4.461	4.005	3.612
x1 = 0.7523	6.089	5.397	4.813	4.32	3.895
x1 = 0.7807	6.049	–	4.805	–	3.964
x1 = 0.8022	6.614	5.867	5.228	4.691	4.225
x1 = 0.8526	7.228	6.406	5.72	5.069	4.607
x1 = 0.8985	7.921	7	6.224	5.577	5.008
x1 = 0.9511	8.898	7.827	6.928	6.186	5.536
